The values that follow come from the BET-seq Pho4 binding data (Le et al. 2018).

The list shows a part of the results. Values were computed here from the reads of four pooled replicates and scatter widely.

This test has as its target T1, Pho4 (S. cerevisiae) (UniProt P07270).
T1 sequence: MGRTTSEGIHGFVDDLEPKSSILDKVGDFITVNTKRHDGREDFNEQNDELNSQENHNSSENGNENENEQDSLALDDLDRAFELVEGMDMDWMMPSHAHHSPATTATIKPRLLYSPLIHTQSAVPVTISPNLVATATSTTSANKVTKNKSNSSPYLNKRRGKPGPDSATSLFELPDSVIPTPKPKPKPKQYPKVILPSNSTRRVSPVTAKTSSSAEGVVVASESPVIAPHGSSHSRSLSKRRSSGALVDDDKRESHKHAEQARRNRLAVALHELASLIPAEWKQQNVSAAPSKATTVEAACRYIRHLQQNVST
The test is described as follows: relative binding free energy (BET-seq); higher = weaker binding. The note with it: reference: library average.
For the sequence GTTTGCACGTGCTAAG, the “relative binding free energy” value amounted to 0.02 kcal/mol. The value for AATTGCACGTGAAGTG was 0.18 kcal/mol. With TTAGACACGTGAGGAA, the “relative binding free energy” value turned out to be 0.33 kcal/mol. The value for GTACGCACGTGTATGT was -0.04 kcal/mol.

With GGTGTCACGTGCTTCG, the “relative binding free energy” value stood at 0.03 kcal/mol. The value for AATGACACGTGTTGAT was 0 kcal/mol; that for ATATGCACGTGGAATG was 0.07 kcal/mol.

For GTTAACACGTGTTGGT, the “relative binding free energy” value came to 0.18 kcal/mol.

With TGATGCACGTGTAAGT, the “relative binding free energy” value came to 0.15 kcal/mol. With TCATGCACGTGTGTCG, the “relative binding free energy” value was -0.02 kcal/mol. AGGCTCACGTGAGTGT: the “relative binding free energy” value came out at 0.43 kcal/mol. On to TTGCTCACGTGTCGGT, for which the “relative binding free energy” value was 0.28 kcal/mol. The value for GTGTGCACGTGAAAAG was 0.23 kcal/mol. As for TATGTCACGTGGTGAA, the “relative binding free energy” value was -0.04 kcal/mol. As to AGGGGCACGTGGGAAG, the “relative binding free energy” value was -0.19 kcal/mol. TAGTCCACGTGGTTTA: the “relative binding free energy” value was -0.09 kcal/mol. The value for CGCGGCACGTGAGGGG was 0.15 kcal/mol; that for GTAGACACGTGACGGT was 0.17 kcal/mol. AGTGTCACGTGAGCGC: the “relative binding free energy” value was 0.21 kcal/mol.

Turning to CCGCGCACGTGGTGGG, the “relative binding free energy” value was -0.21 kcal/mol. The value for ATCTACACGTGTGTAG was 0.13 kcal/mol. As for CCGTACACGTGGGGTG, the “relative binding free energy” value was -0.13 kcal/mol. The value for CGTTACACGTGCGTTG was 0.07 kcal/mol. As to TTATTCACGTGCAGGT, the “relative binding free energy” value is 0.24 kcal/mol. Turning to AGATGCACGTGGGGTC, the “relative binding free energy” value is -0.17 kcal/mol. Regarding GCTTTCACGTGGGTTC, the “relative binding free energy” value is 0.25 kcal/mol. In the case of TGGTACACGTGTGGTG, the “relative binding free energy” value stood at 0.17 kcal/mol. GTGTCCACGTGAAGTT: the “relative binding free energy” value worked out at 0.27 kcal/mol. Take TCGTACACGTGAGTTA: the “relative binding free energy” value stood at 0.34 kcal/mol.

Regarding GGGGTCACGTGTGCGG, the “relative binding free energy” value is 0.11 kcal/mol.

For the sequence GTTTGCACGTGCAGCT, the “relative binding free energy” value worked out at 0.04 kcal/mol. Regarding AATGTCACGTGATTGT, the “relative binding free energy” value came out at 0.36 kcal/mol. The value for GAGGTCACGTGTCTGG was 0.25 kcal/mol; that for TGTTACACGTGTCGGT was 0.16 kcal/mol. On to AGTGACACGTGGTGAA, for which the “relative binding free energy” value is -0.1 kcal/mol. For AGTTTCACGTGCGGCT, the “relative binding free energy” value worked out at 0.1 kcal/mol.

ATCTTCACGTGAGGTT: the “relative binding free energy” value turned out to be 0.29 kcal/mol. With AGTTACACGTGTGGTA, the “relative binding free energy” value was determined as 0.18 kcal/mol. For the sequence CGTATCACGTGAGCTT, the “relative binding free energy” value came out at 0.49 kcal/mol. On to TGCACCACGTGGGGCG, for which the “relative binding free energy” value was -0.08 kcal/mol. As for CTGGGCACGTGGTATG, the “relative binding free energy” value was -0.2 kcal/mol. As for AATGGCACGTGTATGG, the “relative binding free energy” value is -0.1 kcal/mol. As for GTTGTCACGTGGAGCG, the “relative binding free energy” value was determined as 0.21 kcal/mol. On to GTATGCACGTGTAAGA, for which the “relative binding free energy” value worked out at 0.02 kcal/mol. In the case of TTAGTCACGTGTGAGC, the “relative binding free energy” value was 0.12 kcal/mol. In the case of GAGGACACGTGACTGG it was 0.27 kcal/mol; in that of CTCGGCACGTGGAGTG, 0.1 kcal/mol; in that of GCGCGCACGTGGATGG, -0.15 kcal/mol. Consider TGCAGCACGTGGGCTT, for which the “relative binding free energy” value was -0.27 kcal/mol. On to TGGGTCACGTGCAGAA, for which the “relative binding free energy” value worked out at 0.14 kcal/mol. For TTGGTCACGTGTTGAG, the “relative binding free energy” value came to 0.14 kcal/mol. Regarding TGGCTCACGTGTGTTA, the “relative binding free energy” value was found to be 0.19 kcal/mol.

With TATGCCACGTGGGGGC, the “relative binding free energy” value was -0.33 kcal/mol. Regarding CATTTCACGTGGCGGT, the “relative binding free energy” value was determined as 0.08 kcal/mol. Take AGCACCACGTGGGGTG: the “relative binding free energy” value is -0.25 kcal/mol. In the case of CGTGTCACGTGGGGAG it was -0.04 kcal/mol; in that of ATTATCACGTGGCTGG, 0.18 kcal/mol. In the case of TTAGACACGTGGGCGT it was -0.09 kcal/mol; in that of TTGGTCACGTGCGCGG, -0.02 kcal/mol. In the case of AAATTCACGTGGCTTG it was 0.21 kcal/mol; in that of ATTAGCACGTGGGTGG, -0.21 kcal/mol; in that of TATGTCACGTGATGAA, 0.11 kcal/mol. TAGTTCACGTGTCGAA: the “relative binding free energy” value was 0.34 kcal/mol. As to ATTGTCACGTGTAATT, the “relative binding free energy” value is 0.2 kcal/mol. The value for ATAAACACGTGGGTTG was -0.24 kcal/mol. Regarding TAAAGCACGTGAAAGT, the “relative binding free energy” value turned out to be 0.29 kcal/mol. Take ATGGACACGTGGAGTG: the “relative binding free energy” value is -0.06 kcal/mol. In the case of AGGTTCACGTGGTCGA, the “relative binding free energy” value worked out at 0.33 kcal/mol. In the case of TGATACACGTGGTGTA it was -0.06 kcal/mol; in that of TTCAGCACGTGGGGTG, -0.29 kcal/mol. With TTGGTCACGTGTATGC, the “relative binding free energy” value came out at 0.04 kcal/mol.

Regarding GGGTGCACGTGAGTGA, the “relative binding free energy” value amounted to 0.38 kcal/mol. As for TGAGGCACGTGTCAGT, the “relative binding free energy” value was -0.15 kcal/mol. In the case of TTTGGCACGTGGTGAG, the “relative binding free energy” value was -0.13 kcal/mol. For the sequence GATGTCACGTGTGTCA, the “relative binding free energy” value came out at 0.12 kcal/mol.

Take TGAGGCACGTGCTCGT: the “relative binding free energy” value was -0.17 kcal/mol. Take TGGTCCACGTGGTGTT: the “relative binding free energy” value was 0.09 kcal/mol.

For CTGAGCACGTGGGAGA, the “relative binding free energy” value is -0.11 kcal/mol.

As to TAAGTCACGTGGGGGT, the “relative binding free energy” value was -0.02 kcal/mol. In the case of CGATACACGTGTGGTT, the “relative binding free energy” value came to 0.04 kcal/mol. The value for GTTTTCACGTGCTAAG was 0.2 kcal/mol; that for GTTTACACGTGGTTTA was 0.17 kcal/mol. Consider AAGTACACGTGTAGTA, for which the “relative binding free energy” value is 0.07 kcal/mol. In the case of ATCGGCACGTGTGATT it was 0.03 kcal/mol; in that of TTGGACACGTGGTTGG, 0.1 kcal/mol.

In the case of GTCGGCACGTGCGGTA, the “relative binding free energy” value was -0.04 kcal/mol.

As for ATGATCACGTGTTTTC, the “relative binding free energy” value is 0.08 kcal/mol. Consider ATACGCACGTGATAGT, for which the “relative binding free energy” value turned out to be 0.06 kcal/mol. Turning to AGTATCACGTGAGGCG, the “relative binding free energy” value is 0.23 kcal/mol. In the case of TGTGGCACGTGCCGTT, the “relative binding free energy” value was -0.16 kcal/mol. In the case of TGTAACACGTGGATAT, the “relative binding free energy” value was -0.02 kcal/mol.

On to AGTGTCACGTGGATGC, for which the “relative binding free energy” value is 0.06 kcal/mol. In the case of GTTGTCACGTGAACGT, the “relative binding free energy” value was found to be 0.2 kcal/mol. GCGGGCACGTGTGTCA: the “relative binding free energy” value amounted to 0.07 kcal/mol. For the sequence GAAGTCACGTGTGCGA, the “relative binding free energy” value amounted to 0.2 kcal/mol. As to GGGGTCACGTGGAAAG, the “relative binding free energy” value was 0.2 kcal/mol. Consider TATTTCACGTGGCGAT, for which the “relative binding free energy” value was determined as 0.15 kcal/mol. Take GGTAGCACGTGGGAGA: the “relative binding free energy” value was -0.11 kcal/mol. Turning to ATGGCCACGTGGTGGA, the “relative binding free energy” value was -0.19 kcal/mol. Consider CTAAGCACGTGGGTTA, for which the “relative binding free energy” value is -0.24 kcal/mol. Regarding GAGGGCACGTGTACGT, the “relative binding free energy” value worked out at 0 kcal/mol. On to GGTTTCACGTGGTACG, for which the “relative binding free energy” value is 0.23 kcal/mol. On to TGTATCACGTGTGGCA, for which the “relative binding free energy” value came out at 0.24 kcal/mol.

GGGGGCACGTGCTGGG: the “relative binding free energy” value is -0.17 kcal/mol. Turning to AATTACACGTGCTTTT, the “relative binding free energy” value was 0.14 kcal/mol.

As for TGATGCACGTGTGAGA, the “relative binding free energy” value is 0.13 kcal/mol. Take ATGCTCACGTGTAGTA: the “relative binding free energy” value worked out at 0.3 kcal/mol. With TGGTTCACGTGTCGAG, the “relative binding free energy” value is 0.39 kcal/mol.

With GGGGACACGTGTATGA, the “relative binding free energy” value was -0.05 kcal/mol.

For GGACACACGTGTTTTG, the “relative binding free energy” value was determined as 0.16 kcal/mol. Regarding CGTTGCACGTGGAAAT, the “relative binding free energy” value turned out to be 0.27 kcal/mol. The value for ATTTCCACGTGTAATA was 0.33 kcal/mol; that for TGATACACGTGTGATA was 0.05 kcal/mol. With TGCGTCACGTGTTCGG, the “relative binding free energy” value worked out at 0.08 kcal/mol. With AGTAGCACGTGGTTAT, the “relative binding free energy” value was -0.06 kcal/mol.
